{"source": "PubChem BioAssay AID686979", "about": "(National Center for Advancing Translational Sciences (NCATS), 2013)", "note": "Out of some 420,000 compounds screened, about 50,000 (12%) were called active. Another 26% or so got no clear call; they are omitted. Calls come from the whole dose curve; as a rule, active = well fitted inhibition curve with a large enough effect; inconclusive = small, poorly fitted or top-dose-only effect; inactive = flat fitted curve, though single readings scatter. The entries are a selection whose mix differs from that of the whole data set. % is set by controls: 0 for no effect and ±100 for the full control effect; potency is the fitted concentration of half-maximal effect.", "data": [{"test": "qHTS for Inhibitors of human tyrosyl-DNA phosphodiesterase 1 (TDP1): qHTS in cells in presence of CPT; note: nearly all actives have a fitted effect of over 55% in size", "conditions": "chicken DT40 Tdp1-/-;hTDP1 cells + 20 nM CPT, ATP luminescence, 48 h; series mostly up to 46.2 µM; activity change, negative = growth inhibition: at the top concentration", "summary_of_the_method": "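Chicken DT40 Tdp1-/- cells stably complemented with human TDP1 were seeded at 400 cells/well in medium containing 20 nM camptothecin, exposed to pin-transferred compounds, and grown at 37 °C for at least 48 hr. Viability was read as ATP luminescence.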", "values": [{"smiles": "CN1C(=O)/C(=C\\c2ccc(OC(=O)c3ccco3)cc2)SC1=S", "activity change, negative = growth inhibition": "inactive: -11.9%"}, {"smiles": "COc1ccccc1NC(=O)C1=C(C)Nc2nc(CCCO)nn2C1c1cccnc1", "note": "(stereo not given)", "activity change, negative = growth inhibition": "inactive: 33.9%"}, {"smiles": "CCCc1cc(=O)[nH]c(SCC(=O)N2CCc3cc(OC)c(OC)cc3C2)n1", "activity change, negative = growth inhibition": "inactive: -0.355%"}, {"smiles": "CCOC(=O)CNc1nc(Oc2ccc(=O)n(C)n2)nc(N(CC)CC)n1", "activity change, negative = growth inhibition": "inactive: -10.2%"}, {"smiles": "COc1ccc(N2CCN(C3CC(=O)N(Cc4ccccc4)C3=O)CC2)cc1", "note": "(stereo not given)", "activity change, negative = growth inhibition": "inactive: 24.3%"}, {"smiles": "N#Cc1nc(N(c2ccccc2)c2ccccc2)nc(-n2cccc2)n1", "Potency": "active: 7.08 µM"}, {"smiles": "CN1C(=O)Cc2cc(S(=O)(=O)N3CCN(c4ccc(Cl)cc4)CC3)ccc21", "activity change, negative = growth inhibition": "inactive: -2.52%"}, {"smiles": "Cc1nn(Cc2noc(C(=O)NCc3ccc(F)cc3)n2)c(C)c1Br", "activity change, negative = growth inhibition": "inactive: -9.7%"}, {"smiles": "COc1cc(CCC(=O)Nc2ccc(Cl)c(C(F)(F)F)c2)cc(OC)c1OC", "Potency": "active: 18.4 µM"}, {"smiles": "O=C(O)CCC(=O)NNc1ncnc2ccccc12", "activity change, negative = growth inhibition": "inactive: 17.8%"}, {"smiles": "O=C1CC[C@H](O)CCN1[C@H](CSc1ccccc1)Cc1ccccc1", "activity change, negative = growth inhibition": "inactive: -0.303%"}, {"smiles": "CN(c1ccccc1)S(=O)(=O)c1cc(Cl)ccc1Cl", "activity change, negative = growth inhibition": "inactive: 6.52%"}, {"smiles": "CCOc1ccc(/C=C/C(O)=C2/C(=O)NC3(C)CC2c2ccccc2O3)cc1OC", "note": "(stereo not given)", "Potency": "active: 5.17 µM"}, {"smiles": "CCOc1ccc(Cn2nnc(C(=O)NCc3ccc(OC)cc3)c2N)cc1", "activity change, negative = growth inhibition": "inactive: 3.16%"}, {"smiles": "CC12C(=O)OC(=O)C1(C)C1CCC2O1", "note": "(stereo not given)", "Potency": "inactive"}, {"smiles": "CCC(OC(=O)c1ccco1)C(=O)NCc1ccco1", "note": "(stereo not given)", "activity change, negative = growth inhibition": "inactive: -2.83%"}, {"smiles": "CCOc1ccc(S(=O)(=O)N(C)c2ccc(OCC(=O)Nc3nccs3)cc2)cc1", "activity change, negative = growth inhibition": "inactive: 16%"}, {"smiles": "CC(C)(C)[C@H]1CCC(=O)N([C@H](CSc2ccccc2)Cc2ccccc2)CC1", "Potency": "active: 23.1 µM"}, {"smiles": "C/C(=N/Nc1ccc(C(=O)O)cc1)c1ccc2c(c1)Nc1ccccc1S2", "activity change, negative = growth inhibition": "inactive: -7.54%"}, {"smiles": "O=C(NC(C(=O)c1ccccc1)N1CCCCCC1)c1ccco1", "note": "(stereo not given)", "Potency": "active: 23.1 µM"}, {"smiles": "CCN(CC)c1cc(C)c2cc(NC(=O)CNC(C)=O)ccc2n1", "activity change, negative = growth inhibition": "inactive: 32.3%"}, {"smiles": "COc1ccc(NC(=O)C2CCCN(S(=O)(=O)c3c(C)[nH]c(=O)[nH]c3=O)C2)cc1", "note": "(stereo not given)", "Potency": "inactive"}, {"smiles": "COc1cccc(C=C(C(C)=O)C(=O)c2ccccc2)c1", "Potency": "active: 20.6 µM"}, {"smiles": "CCCCC(CC)CNC(=O)CCCCn1c(=O)[nH]c2ccsc2c1=O", "note": "(stereo not given)", "activity change, negative = growth inhibition": "inactive: -19.6%"}, {"smiles": "Cc1ccc(S(=O)(=O)N2CCOCC2)c(C)c1NS(C)(=O)=O", "activity change, negative = growth inhibition": "inactive: 34.2%"}, {"smiles": "Cc1occc1C(=O)N/N=C/C=C/c1ccccc1[N+](=O)[O-]", "activity change, negative = growth inhibition": "inactive: 7.45%"}, {"smiles": "COc1cccc(S(=O)(=O)N(C)C[C@H]2Oc3ncc(Br)cc3C(=O)N([C@H](C)CO)C[C@H]2C)c1", "activity change, negative = growth inhibition": "inactive: -18.9%"}, {"smiles": "NC1(C(=O)O)CC1", "activity change, negative = growth inhibition": "inactive: -2.14%"}, {"smiles": "OCCC1CN(Cc2cccnc2)CCN1CCc1ccccc1", "note": "(stereo not given)", "activity change, negative = growth inhibition": "inactive: 39.5%"}, {"smiles": "Nc1nc(SCC(=O)N2N=C3/C(=C/c4ccco4)CCCC3C2c2ccco2)n[nH]1", "note": "(stereo not given)", "activity change, negative = growth inhibition": "inactive: -25.5%"}, {"smiles": "COc1ccc(CNC(=O)CC(C)CC2=NS(=O)(=O)c3ccccc3N2)cc1", "note": "(stereo not given)", "activity change, negative = growth inhibition": "inactive: -2.79%"}, {"smiles": "CN(c1ccc(C(=O)NCc2ccc3c(c2)OCO3)cc1)S(=O)(=O)c1ccccc1", "activity change, negative = growth inhibition": "inactive: 1.77%"}, {"smiles": "CN(C)CCC(c1ccc(Br)cc1)c1ccccn1", "note": "(stereo not given)", "Potency": "inactive"}, {"smiles": "Cc1cc(C)n(-c2ccc(Oc3ccccc3)c(S(=O)(=O)O)c2)n1", "activity change, negative = growth inhibition": "inactive: 6.29%"}, {"smiles": "C/C(N)=C(/C#N)C(=O)COC(=O)c1cc(C)n(-c2ccc(F)cc2)c1C", "activity change, negative = growth inhibition": "inactive: -25.9%"}, {"smiles": "COc1ccc2c(c1)-c1nc(NC(=O)c3cc(Cl)ccc3OC)sc1CC2", "Potency": "active: 8.2 µM"}, {"smiles": "Cc1cccc(C)c1OC(=O)Cc1ccccc1[N+](=O)[O-]", "activity change, negative = growth inhibition": "inactive: 20.1%"}, {"smiles": "CC(C)(C)OC(=O)N1CCC(c2c(C(=O)N3CCN(C(=O)c4ccco4)CC3)cnn2-c2ccc(F)cc2F)CC1", "activity change, negative = growth inhibition": "inactive: -12.8%"}, {"smiles": "COc1ccc(CNC(=O)COC(=O)c2ccco2)cc1", "activity change, negative = growth inhibition": "inactive: 40.2%"}, {"smiles": "CCCC[C@H]1COCCS(=O)(=O)N1Cc1cccc(F)c1", "activity change, negative = growth inhibition": "inactive: -25.7%"}, {"smiles": "C[C@@H]1CN([C@@H](C)CO)C(=O)c2cc(N(C)C)ccc2O[C@@H](C)CCCCO[C@@H]1CN(C)S(=O)(=O)c1cccs1", "Potency": "active: 18.4 µM"}, {"smiles": "C[C@@H](NC(=O)C1(c2ccccc2)CCN(C(=O)OC(C)(C)C)CC1)C(=O)N[C@@H](C(=O)O)c1ccccc1", "activity change, negative = growth inhibition": "inactive: 37.6%"}, {"smiles": "COc1ccc(-c2cc3nc(-c4ccccc4)cc(N4CCN(C(=O)c5ccsc5)CC4)n3n2)cc1", "Potency": "active: 7.31 µM"}, {"smiles": "O=C(CCNS(=O)(=O)c1cccc2nsnc12)NCc1ccc(F)cc1", "activity change, negative = growth inhibition": "inactive: 35.7%"}, {"smiles": "CCN(CC)c1ccc(S(=O)(=O)N2CCOCC2)cc1NC(=O)CSC(=S)N1CCCC1", "Potency": "active: 18.4 µM"}, {"smiles": "CC(C)C(=O)OCC(=O)NCc1ccccc1Cl", "activity change, negative = growth inhibition": "inactive: 31.7%"}, {"smiles": "CC[C@](N)(CCC(=O)O)C(=O)O", "Potency": "inactive"}, {"smiles": "CCOc1ccccc1CNC(=O)CCc1cn(C)c2ccccc12", "activity change, negative = growth inhibition": "inactive: -9.58%"}, {"smiles": "NC(=O)c1ccc[n+]([C@@H]2OC(COP(=O)([O-])OP(=O)(O)OCC3OC(n4cnc5c(N)ncnc54)C(O)C3O)C(O)C2O)c1", "note": "(stereo not given in full)", "activity change, negative = growth inhibition": "inactive: -0.785%"}, {"smiles": "CC1=NS(=O)(=O)c2cc(Cl)ccc2N1", "Potency": "inactive"}, {"smiles": "Cc1[nH]nc(N=Cc2c(O)n(C)c(=O)n(C)c2=O)c1-c1ccccc1", "activity change, negative = growth inhibition": "inactive: 32.8%"}, {"smiles": "COc1ccc([C@H](OC)[C@@]2(Cc3ccc(O)cc3)N=C(N)N(C)C2=O)cc1", "activity change, negative = growth inhibition": "inactive: -1.43%"}, {"smiles": "CCn1nc(C)c(C2C(C#N)=C(N)OC3=C2C(=O)CCC3)c1C", "note": "(stereo not given)", "activity change, negative = growth inhibition": "inactive: 31%"}, {"smiles": "CCOc1ccccc1C(=O)N[C@H](C(=O)NCc1ccccc1)C(C)C", "activity change, negative = growth inhibition": "inactive: 33.7%"}, {"smiles": "CC(CNC1CCCCC1)OC(=O)c1ccccc1", "note": "(stereo not given)", "activity change, negative = growth inhibition": "inactive: -23.3%"}, {"smiles": "Cc1ccc(-c2cc(C(F)(F)F)nn2-c2ccc(S(N)(=O)=O)cc2)cc1", "activity change, negative = growth inhibition": "inactive: -20.1%"}, {"smiles": "O=C1c2ccccc2C(=O)c2c(O)c(O)cc(O)c21", "Potency": "inactive"}, {"smiles": "O=C1/C(=C\\c2cccnc2)SC(=S)N1c1ccc(F)cc1", "activity change, negative = growth inhibition": "inactive: -15.6%"}, {"smiles": "Cc1cc(C(=O)COc2cccc(-n3cnnn3)c2)c(C)n1-c1ccccc1", "Potency": "active: 23.1 µM"}, {"smiles": "C/C=C/C=N\\NC(=O)c1ccncc1", "activity change, negative = growth inhibition": "inactive: 0.212%"}, {"smiles": "COC(=O)[C@]12CCCCC=C1N(CCc1ccc(OC)c(OC)c1)C(=O)[C@H](CC(=O)NCc1cccc3ccccc13)C2", "Potency": "active: 10.3 µM"}, {"smiles": "N#CC[C@H](Cc1ccccc1)N1CCN(Cc2ccccc2)CCC1=O", "activity change, negative = growth inhibition": "inactive: -14.8%"}, {"smiles": "COc1ccc(/C=C/C(=O)c2ccc([N+](=O)[O-])o2)cc1OC", "Potency": "active: 0.58 µM"}, {"smiles": "CNCC(O)c1ccc(O)c(O)c1", "note": "(stereo not given)", "activity change, negative = growth inhibition": "inactive: 2.19%"}, {"smiles": "O=C(NCc1ccccc1)c1cc2ccccc2o1", "activity change, negative = growth inhibition": "inactive: -25.4%"}]}]}
